# Assay results reported in the supplement of paper PMC12217912.
# The list shows a part of the results. The full chains were built here from the parent and the listed change. Values near 0.05 are background.
# B1: TEV protease; numbered along this chain (parent)
# chain: MGESLFKGPRDYNPISSSICHLTNESDGHTTSLYGIGFGPFIITNKHLFRRNNGTLVVQSLHGVFKVKDTTTLQQHLVDGRDMIIIRMPKDFPPFPQKLKFREPQREERICLVTTNFQTKSMSSMVSDTSCTFPSGDGIFWKHWIQTKDGQCGSPLVSTRDGFIVGIHSASNFTNTNNYFTSVPKNFMELLTNQEAQQWVSGWRLNADSVLWGGHKVFMVKPEEPFQPVKEATQL
# Variants of: B1
# Assay: raw area under fraction-flipped curve 0-4 h after induction (AUC4h, not background-subtracted), DNA-recorder readout of cleavage of the substrate (dimensionless); higher = more cleavage of the substrate by the protease variant
# Conditions: temperature: 34 °C; time window: 0-4 h after rhamnose induction
# Protocol: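 In vivo DNA recorder in E. coli TOP10(DE3) ΔrhaA at 34 °C. Each TEVp single-site mutant (parent TEVp 0) is paired with a single-site variant of the 7-mer TEVs (canonical ENLYFQ|S). The substrate sits between flexible linkers in a Bxb1-sfGFP-TEVs-SsrA fusion, so cleavage stabilises Bxb1 and speeds flipping of a recombination array, read by NGS. The value is the raw area under the fraction-flipped curve over 0-4 h after rhamnose induction (AUC4h), with ≥20 reads per time point. It is not background-subtracted; inactive controls average about 0.047.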
# 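Note: Bxb1 expression induced with 0.2% (w/v) L-rhamnose at OD600 near 0.5, cultures sampled hourly, flipped fraction per protease–substrate barcode pair counted by paired-end Illumina sequencing.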
Variant,area with substrate ENAYFQS,area with substrate ENEYFQS,area with substrate ENFYFQS,area with substrate ENHYFQS,area with substrate ENKYFQS,area with substrate ENMYFQS,area with substrate ENNYFQS,area with substrate ENQYFQS,area with substrate ENRYFQS,area with substrate ENVYFQS,area with substrate ENCYFQS,area with substrate ENDYFQS,area with substrate ENGYFQS,area with substrate ENIYFQS,area with substrate ENPYFQS,area with substrate ENTYFQS,area with substrate ENWYFQS,area with substrate ENYYFQS,area with substrate ENSYFQS
MGESLFKGPRDYNPISSSICHLTNESDGHTTSLYGIGFGPFIITNKHLFRRNNGTLVVQSLHGVFKVKDTTTLQQHLVDGRDMIIIRMPKDFPPFPQKLKFREPQREERICLVTTNFQTKSMSSMVSDTSCTFPSGDGIFWKHWIWTKDGQCGSPLVSTRDGFIVGIHSASNFTNTNNYFTSVPKNFMELLTNQEAQQWVSGWRLNADSVLWGGHKVFMVKPEEPFQPVKEATQL [Q146W],0.061,0.0523,0.0477,0.0534,0.0536,0.0702,0.0345,0.0309,0.0432,0.0961,,,,,,,,,
MGESLFKGPRDYNPISSSICHLTNESDGHTTSLYGIGFGPFIITNKHLFRRNNGTLVVQSLHGVFKVKDTTTLQQHLVDGRDMIIIRMPKDFPPFPQKLKFREPQREERICLVTTNFQTKSMSSMVSDTSCTFPSGDGIFWKHWIHTKDGQCGSPLVSTRDGFIVGIHSASNFTNTNNYFTSVPKNFMELLTNQEAQQWVSGWRLNADSVLWGGHKVFMVKPEEPFQPVKEATQL [Q146H],0.0585,,0.0683,,,,0.0672,0.0607,0.039,0.0691,0.0631,0.0664,0.0569,0.0937,0.055,0.0669,0.0496,0.0615,
MGESLFKGPRDYNPISSSICHLTNESDGHTTSLYGIGFGPFIITNKHLFRRNNGTLVVQSLHGVFKVKDTTTLQQHLVDGRDMIIIRMPKDFPPFPQKLKFREPQREERICLVTTNFQTKSMSSMVSDTSCTFPSGDGIFWKHWIQTKDGDCGSPLVSTRDGFIVGIHSASNFTNTNNYFTSVPKNFMELLTNQEAQQWVSGWRLNADSVLWGGHKVFMVKPEEPFQPVKEATQL [Q151D],0.0643,0.0663,0.0596,0.0654,0.0687,,,0.0583,0.0588,0.0867,0.0645,0.0672,,,0.0738,0.0687,0.0325,,0.0626
MGESLFKGPRDYNPISSSICHLTNESDGHTTSLYGIGFGPFIITNKHLFRRNNGTLVVQSLHGVFKVKDTTTLQQHLVDGRDMIIIRMPKDFPPFPQKLKFREPQREERICLVTTNFQTKSMSSMVSDTSCTFPSGDGIFWKHWMQTKDGQCGSPLVSTRDGFIVGIHSASNFTNTNNYFTSVPKNFMELLTNQEAQQWVSGWRLNADSVLWGGHKVFMVKPEEPFQPVKEATQL [I145M],0.0618,0.0697,0.0535,0.0566,,,0.0639,0.0476,0.0455,0.0653,0.0557,0.0595,0.0631,,0.0559,0.055,,0.0589,
MGESLFKGPRDYNPISSSICHLTNESDGHTTSLYGIGFGPFIITNKHLFRRNNGTLVVQSLHGVFKVKDTTTLQQHLVDGRDMIIIRMPKDFPPFPQKLKFREPQREERICLVTTNFQTKSMSSMVSDTSCTFPSGDGIQWKHWIQTKDGQCGSPLVSTRDGFIVGIHSASNFTNTNNYFTSVPKNFMELLTNQEAQQWVSGWRLNADSVLWGGHKVFMVKPEEPFQPVKEATQL [F140Q],0.0485,0.0721,0.035,0.0644,0.0651,,,,0.0481,0.0581,,0.0627,,0.0521,,,,,
MGESLFKGPRDYNPISSSICHLTNESDGHTTSLYGIGFGPFIITNKHLFRRNNGTLVVQSLHGVFKVKDTTTLQQHLVDGRDMIIIRMPKDFPPFPQKLKFREPQREERICLVTTNFQTKSMSSMVSDTSCTFPSGDGIYWKHWIQTKDGQCGSPLVSTRDGFIVGIHSASNFTNTNNYFTSVPKNFMELLTNQEAQQWVSGWRLNADSVLWGGHKVFMVKPEEPFQPVKEATQL [F140Y],0.0603,0.0741,,,,,,0.0356,0.0549,,,0.0604,,,0.0538,,,,0.0672
MGESLFKGPRDYNPISSSICHLTNESDGHTTSLYGIGFGPFIITNKHLFRRNNGTLVVQSLHGVFKVKDTTTLQQHLVDGRDMIIIRMPKDFPPFPQKLKFREPQREERICLVTTNFQTKSMSSMVSDTSCTFPSGDGINWKHWIQTKDGQCGSPLVSTRDGFIVGIHSASNFTNTNNYFTSVPKNFMELLTNQEAQQWVSGWRLNADSVLWGGHKVFMVKPEEPFQPVKEATQL [F140N],0.0656,0.0706,0.0715,0.0636,0.0575,0.0594,0.0648,0.0665,0.0324,0.068,0.0732,0.0746,0.0676,,0.0693,0.0578,0.0048,0.0619,0.0527
MGESLFKGPRDYNPISSSICHLTNESDGHTTSLYGIGFGPFIITNKHLFRRNNGTLVVQSLHGVFKVKDTTTLQQHLVDGRDMIIIRMPKDFPPFPQKLKFREPQREERICLVTTNFQTKSMSSMVSDTSCTFPSGDGIFWKHWIQTKDGQNGSPLVSTRDGFIVGIHSASNFTNTNNYFTSVPKNFMELLTNQEAQQWVSGWRLNADSVLWGGHKVFMVKPEEPFQPVKEATQL [C152N],0.0576,0.0597,0.0686,,0.0605,0.0633,0.0333,0.0468,,0.0732,0.0603,,,0.0754,0.06,0.0685,,0.0562,0.0608
MGESLFKGPRDYNPISSSICHLTNESDGHTTSLYGIGFGPFIITNKHLFRRNNGTLVVQSLHGVFKVKDTTTLQQHLVDGRDMIIIRMPKDFPPFPQKLKFREPQREERICLVTTNFQTKSMSSMVSDTSCTFPSGDGIFWKHWIQTVDGQCGSPLVSTRDGFIVGIHSASNFTNTNNYFTSVPKNFMELLTNQEAQQWVSGWRLNADSVLWGGHKVFMVKPEEPFQPVKEATQL [K148V],0.0648,0.0625,,0.0609,0.0662,,0.0484,0.0831,0.0607,,,0.0675,0.0482,0.112,0.0577,0.0543,0.0073,,
